The supplement of paper PMC4604168 (melanoma cell lines)
Some of the results follow. Many values rest on one well or one pass, so single values are uncertain.

Experiments:
Assay in all cases: cell count relative to DMSO control; melanoma cells; higher = more viable cells
Settings in all cases: library dose: low library concentration; 72 h; first compound 0.4 µM
WM115 = test system: WM115
WM1716 = test system: WM1716
WM1745 = test system: WM1745
WM3526 = test system: WM3526
WM3619 = test system: WM3619
WM451Lu = test system: WM451Lu
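Note: cell number obtained by counting DAPI-stained nuclei in high-throughput microscope images with image analysis software, screen run in 1,536-well plates.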

| Compound | cell count (WM115) [%] | cell count (WM1716) [%] | cell count (WM1745) [%] | cell count (WM3526) [%] | cell count (WM3619) [%] | cell count (WM451Lu) [%] |
| --- | --- | --- | --- | --- | --- | --- |
| Cn1sc(=O)n(Cc2ccccc2)c1=O + Nc1cccc2c1CN(C1CCC(=O)NC1=O)C2=O [lenalidomide] (partner dose 1 µM) | 92.4 | 101 | 107 | 90.5 | 110 | 113 |
| C[C@@H](N)c1ccc(C(=O)Nc2ccnc3[nH]ccc23)cc1 + O=C(O)c1ccc2c(c1)nc(Nc1cccc(Cl)c1)c1ccncc12 [CX4945] (partner dose 0.4 µM) | 119 | 69.4 | 85.6 | 119 | 77.2 | 71.5 |
| C[C@@H](N)c1ccc(C(=O)Nc2ccnc3[nH]ccc23)cc1 + O=C(Nc1cccc(Cl)c1)Nc1ncc(CCNc2ncnc3ccsc23)s1 [SNS314] (partner dose 0.0008 µM) | 65.4 | 69.2 | 77.9 | 103 | 107 | 102 |
| C[C@@H](N)c1ccc(C(=O)Nc2ccnc3[nH]ccc23)cc1 + CCN(CC)CCCCNc1ncc2cc(-c3cc(OC)cc(OC)c3)c(NC(=O)NC(C)(C)C)nc2n1 [PD173074] (partner dose 0.1 µM) | 119 | 77.1 | 86.7 | 117 | 103 | 87 |
| Cn1sc(=O)n(Cc2ccccc2)c1=O + CN1CCN(c2ccc3nc(-c4c(N)c5c(F)cccc5[nH]c4=O)[nH]c3c2)CC1 [Dovitinib] (partner dose 0.1 µM) | 99.8 | 107 | 112 | 95.7 | 119 | 87.4 |
| CCCCCCCCCCCCCCCCCCOP(=O)([O-])OC1CC[N+](C)(C)CC1 [Perifosine] + Cn1cncc1[C@@](N)(c1ccc(Cl)cc1)c1ccc2c(c1)c(-c1cccc(Cl)c1)cc(=O)n2C [tipifarnib] (partner dose 0.01 µM) | 74 | 66 | 4.44 | 72.4 | 78.5 | 69 |
| Cn1sc(=O)n(Cc2ccccc2)c1=O + CC(=O)c1c(C)c2cnc(Nc3ccc(N4CCNCC4)cn3)nc2n(C2CCCC2)c1=O [palbociclib] (partner dose 0.04 µM) | 74 | 68.3 | 111 | 62.1 | 45 | 79.9 |
| Cn1sc(=O)n(Cc2ccccc2)c1=O + COC(=O)c1sccc1S(=O)(=O)Nc1ccc(Nc2ccccc2)cc1OC [GSK0660] (partner dose 1 µM) | 96.4 | 104 | 97.4 | 100 | 63.3 | 94.5 |
| C[C@@H](N)c1ccc(C(=O)Nc2ccnc3[nH]ccc23)cc1 + Cc1cc(N2CCOCC2)cc2[nH]c(-c3c(NC[C@@H](O)c4cccc(Cl)c4)cc[nH]c3=O)nc12 [BMS536924] (partner dose 0.2 µM) | 108 | 66.1 | 53.3 | 108 | 108 | 81.3 |
| C[C@@H](N)c1ccc(C(=O)Nc2ccnc3[nH]ccc23)cc1 + CCN(CC)CCNC(=O)c1c(C)[nH]c(/C=C2\C(=O)Nc3ccc(F)cc32)c1C [sunitinib] (partner dose 0.4 µM) | 110 | 64.3 | 67 | 111 | 144 | 97.1 |
| CCCCCCCCCCCCCCCCCCOP(=O)([O-])OC1CC[N+](C)(C)CC1 [Perifosine] + O=C(O)[C@@H]1[O][Sb](=[O])([O][Sb]2(=[O])[O][C@H]([C@H](O)CO)[C@H](O)[C@H](C(=O)O)[O]2)[O][C@H]([C@H](O)CO)[C@@H]1O [stibogluconate] (partner dose 2 µM) | 98.8 | 100 | 95.8 | 88.8 | 97.2 | 106 |
| C[C@@H](N)c1ccc(C(=O)Nc2ccnc3[nH]ccc23)cc1 + CC(C)CCN1c2nc(Nc3cc(F)c(O)c(F)c3)ncc2N(C)C(=O)C1C [BID1870] (partner dose 0.2 µM) | 113 | 79.6 | 89 | 99.3 | 122 | 94.4 |
| C[C@@H](N)c1ccc(C(=O)Nc2ccnc3[nH]ccc23)cc1 + COc1cc2c(Oc3ccc4[nH]c(C)cc4c3F)ncnc2cc1OCCCN1CCCC1 [cediranib] (partner dose 0.4 µM) | 96.7 | 62.9 | 80.8 | 110 | 97 | 89.1 |
| CCCCCCCCCCCCCCCCCCOP(=O)([O-])OC1CC[N+](C)(C)CC1 [Perifosine] + Cn1nnc2c(C(N)=O)ncn2c1=O [temozolomide] (partner dose 2 µM) | 94.3 | 88.8 | 114 | 99.6 | 94.1 | 93.7 |
| C[C@@H](N)c1ccc(C(=O)Nc2ccnc3[nH]ccc23)cc1 + O=S(=O)(c1ccccc1)N(CC(F)(F)F)c1ccc(C(O)(C(F)(F)F)C(F)(F)F)cc1 [T0901317] (partner dose 1.4 µM) | 108 | 66.4 | 69.7 | 94.3 | 99.1 | 74.7 |
| C[C@@H](N)c1ccc(C(=O)Nc2ccnc3[nH]ccc23)cc1 + CC(C)(C)c1cnc(CSc2cnc(NC(=O)C3CCNCC3)s2)o1 [SNS-032] (partner dose 0.01 µM) | 96.2 | 63.7 | 72.3 | 96.7 | 47.2 | 109 |
| Cn1sc(=O)n(Cc2ccccc2)c1=O + CS(=O)(=O)c1ccc(C(=O)Nc2ccc(Cl)c(-c3ccccn3)c2)c(Cl)c1 [vismodegib] (partner dose 1 µM) | 95.4 | 96.7 | 94.1 | 109 | 105 | 107 |
| Cn1sc(=O)n(Cc2ccccc2)c1=O + CCCS(=O)(=O)Nc1ccc(F)c(C(=O)c2c[nH]c3ncc(Cl)cc23)c1F [PLX4720] (partner dose 0.08 µM) | 111 | 97.3 | 112 | 101 | 83.5 | 101 |
| CCCCCCCCCCCCCCCCCCOP(=O)([O-])OC1CC[N+](C)(C)CC1 [Perifosine] + COc1ccc(COc2ccc(Cc3cnc(N)nc3N)cc2OC)cc1 [GW2580] (partner dose 1 µM) | 107 | 101 | 99 | 104 | 118 | 69.2 |
| CCCCCCCCCCCCCCCCCCOP(=O)([O-])OC1CC[N+](C)(C)CC1 [Perifosine] + Cn1cnc2c(F)c(Nc3ccc(Br)cc3Cl)c(C(=O)NOCCO)cc21 [selumetinib] (partner dose 0.015 µM) | 99.6 | 105 | 99 | 87.9 | 89 | 86.1 |
| CCCCCCCCCCCCCCCCCCOP(=O)([O-])OC1CC[N+](C)(C)CC1 [Perifosine] + CO[C@H]1C[C@@H]2CC[C@@H](C)[C@@](O)(O2)C(=O)C(=O)N2CCCC[C@H]2C(=O)O[C@H]([C@H](C)C[C@@H]2CC[C@@H](OCCO)[C@H](OC)C2)CC(=O)[C@H](C)/C=C(\C)[C@@H](O)[C@@H](OC)C(=O)[C@H](C)C[C@H](C)/C=C/C=C/C=C/1C [everolimus] (partner dose 0.02 µM) | 78 | 79.2 | 85.4 | 72.2 | 79.8 | 96 |
| CCCCCCCCCCCCCCCCCCOP(=O)([O-])OC1CC[N+](C)(C)CC1 [Perifosine] + CC(C)CCN1c2nc(Nc3cc(F)c(O)c(F)c3)ncc2N(C)C(=O)C1C [BID1870] (partner dose 0.2 µM) | 87.2 | 103 | 104 | 78 | 104 | 108 |
| CCCCCCCCCCCCCCCCCCOP(=O)([O-])OC1CC[N+](C)(C)CC1 [Perifosine] + O=C1NC(=O)/C(=C/c2ccc(-c3ccc(F)cc3O)o2)S1 [AS252424] (partner dose 1 µM) | 90.3 | 93.4 | 83.8 | 82.1 | 87.8 | 118 |
| CCCCCCCCCCCCCCCCCCOP(=O)([O-])OC1CC[N+](C)(C)CC1 [Perifosine] + CC(=O)c1c(C)c2cnc(Nc3ccc(N4CCNCC4)cn3)nc2n(C2CCCC2)c1=O [palbociclib] (partner dose 0.04 µM) | 83.3 | 70.4 | 78 | 44.7 | 78.3 | 93.1 |
| Cn1sc(=O)n(Cc2ccccc2)c1=O + O=C(O)c1ccc2c(c1)nc(Nc1cccc(Cl)c1)c1ccncc12 [CX4945] (partner dose 0.4 µM) | 99 | 82.5 | 90.5 | 107 | 71.7 | 89.6 |
| CCCCCCCCCCCCCCCCCCOP(=O)([O-])OC1CC[N+](C)(C)CC1 [Perifosine] + Cc1cc(Nc2cc(N3CCN(C)CC3)nc(/C=C/c3ccccc3)n2)n[nH]1 [ENMD2076] (partner dose 0.04 µM) | 90.3 | 104 | 119 | 91.9 | 86.1 | 112 |
| CCCCCCCCCCCCCCCCCCOP(=O)([O-])OC1CC[N+](C)(C)CC1 [Perifosine] + NC(=O)c1ccc(N(C(N)=O)c2c(F)cccc2F)nc1-c1ccc(F)cc1F [VX702] (partner dose 0.4 µM) | 97.1 | 97.3 | 77.9 | 97.1 | 88.6 | 102 |
| Cn1sc(=O)n(Cc2ccccc2)c1=O + Cc1nc(Nc2ncc(C(=O)Nc3c(C)cccc3Cl)s2)cc(N2CCN(CCO)CC2)n1 [dasatanib] (partner dose 0.004 µM) | 85.5 | 93.2 | 81.9 | 94 | 97.4 | 89.6 |
| CCCCCCCCCCCCCCCCCCOP(=O)([O-])OC1CC[N+](C)(C)CC1 [Perifosine] + c1cc(-c2cnn3cc(-c4ccc(OCCN5CCCCC5)cc4)cnc23)ccn1 [Dorsomorphin] (partner dose 0.4 µM) | 98.3 | 89.4 | 78.3 | 93.1 | 116 | 98.3 |
